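These data come from cells grown in 96-well plates and exposed to compound for 48 hours at five concentrations. Abbreviation: GI50, concentration required for 50% inhibition of growth. TGI: concentration producing complete growth inhibition.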
Test system: NCI-H322M lung
Assay: NCI-60 cell line screen, 48 h

SMILES	GI50 [µM]	TGI [µM]
CCCn1cnc2c(c1=N)C(c1ccc(F)cc1)c1sc3c(C)cccc3c1O2 (stereo not given)	5.58	> 58.9
N#Cc1cccc(NC(=O)c2cc(-c3ccc(F)cc3F)ccc2O)c1	2.23	9
CC(C)(O)c1cncc(-c2ccc3ncc(C#N)c(N4CCc5cc(F)c(Cl)cc54)c3c2)c1	3.39	> 100
CN1CCN(c2ccc(Nc3nc(NCCCNS(=O)(=O)c4ccc(C(F)(F)F)cc4)c4sccc4n3)cc2)CC1	2.49	6.76
CCOC(=O)c1c(NC(=O)c2cccc(C(F)(F)F)c2)sc2c1CCC(=O)C2	> 100	> 100
